Assay results published in PubChem BioAssay AID1963576 (National Center for Advancing Translational Sciences (NCATS), 2024).
Out of some 46,000 compounds screened, about 60 (0.1%) were called active. Inconclusive results (about 3%) are left out. Calls follow the shape of the dose curve; as a rule, active = well fitted inhibition curve with a large enough effect; inconclusive = small, poorly fitted or top-dose-only effect; inactive = no such curve, though single readings can be large or run the other way. Some of the results follow.

Test: Primary qHTS assay for Inhibitors of ovarian cancer metastasis using an organotypic tumor microenvironment (TME) model. Also: nearly all actives have a fitted effect of over 65% in size.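 As to activity change, negative = inhibition: plate controls were DMSO wells for no effect and tomatine positive control wells for full effect.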
Settings: SKOV3ip1-GFP adhesion/invasion on 3D omental model, fluorescence; series mostly up to 45.8 µM; activity change, negative = inhibition: at the top concentration
Summary of the method: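 qHTS, 4-pt dose (0.36-46 umol/L); SKOV3ip1-GFP, 1,200 cells/well, no FBS; primary omental fibroblast/mesothelial co-culture 48 h pre-grown; 2 h RT + 16 h 37 C; PBS wash, 4% PFA; GFP count 488/509 nm.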

outcome, inactive:
COc1cc2c(cc1NC(=O)c1ccccc1C)n(C)c(=O)n2C
COc1cc(C(=O)NCCc2sc(-c3cccc(F)c3)nc2C)cc(OC)c1OC
Cc1nc2cc(-c3cccc(F)c3)nn2c(C)c1CCC(=O)NC(C)c1ccccc1 (stereo not given)
CCOC(=O)c1ccc(NC(=O)c2oc3c(c2C)-c2nn(Cc4ccccc4Cl)cc2CC3)cc1
CC(C)CNc1ncnc2onc(-c3ccc(Cl)cc3)c12
O=C(CCN1C(=O)c2ccccc2Sc2ncccc21)Nc1ccc(F)cc1
COc1cccc(-c2cc(C(=O)NCc3ccc(F)cc3)no2)c1
Cc1c(C(=O)N2CCOCC2)oc2c1-c1nn(CC(=O)NCc3cccc(F)c3)cc1CC2
COC(=O)c1ccc(Cl)cc1NC(=O)NCCc1c(C)nn(C)c1C
CCOC(=O)c1cccc(NC(=O)CCS(=O)(=O)c2ccc3c(c2)CC(=O)N3C)c1
CCOC(=O)c1c(C)[nH]c(C)c1S(=O)(=O)N1CCC(C(=O)Nc2cc(C)ccn2)CC1
CC(C)(C)C1CCc2c(sc(NC(=O)Cn3nnc(-c4ccccc4Cl)n3)c2C#N)C1 (stereo not given)
COc1ccc(-n2ccnc2SCC(=O)Nc2ccc3c(c2)OCO3)cc1
Cc1cccc(C(C)C)c1NC(=O)Cn1c(=O)oc2cc(S(=O)(=O)N3CCCC3)ccc21
COc1ccc(NC(=O)C2CCN(S(=O)(=O)c3ccc4c(c3)CCCC(=O)N4)CC2)cc1OC
COc1cc(Nc2nc(SCc3ccc(Cl)cc3)nc3ccccc23)cc(OC)c1
COc1ccc(-c2oc3ncn4nc(COc5cccc(C)c5C)nc4c3c2-c2ccc(OC)cc2)cc1
O=C(COCc1cc(-c2cccs2)on1)N1CCN(c2ccccc2)CC1
COc1cc(C(=O)Nc2ccc(NC(=O)c3ccc(C(C)(C)C)cc3)cc2)cc(OC)c1OC
COc1cccc(C(=O)N2CCC(C(=O)Nc3cccc(Cl)c3)CC2)c1
Cc1cccc(CNC(=O)c2ccc(N3Cc4ccccc4Oc4ncccc43)s2)c1
CN(C)c1cccc(C(=O)N2CCC(c3c[nH]c4ccccc34)(c3c[nH]c4ccccc34)CC2)c1
CC(C)c1ccc(N2C(=O)CSC23C(=O)N(Cc2cccc(F)c2)c2ccccc23)cc1 (stereo not given)
O=C(Cn1c(=O)oc2cc(S(=O)(=O)NCc3ccccc3)ccc21)Nc1cccc(F)c1
Cc1oc(-c2ccc(C(=O)Nc3ccc(F)cc3)cc2)nc1COc1ccccc1
COc1ccc(C2=CC(c3cc(Br)ccc3F)n3c(nc4ccccc43)N2)cc1 (stereo not given)
O=C(CCn1c(=O)c2cccn2c2cccnc21)N1CCN(c2cccc(C(F)(F)F)c2)CC1
CC(C)NC(=O)c1ccc(Cn2c(SCc3ccc(F)cc3)nc3cccnc32)cc1
COc1cccc(CNS(=O)(=O)c2cnc(N)nc2)c1
C=CCc1cccc2cc(-c3nc4ccc(C)cc4[nH]3)c(=O)oc12
COc1cc(OC)cc(C(=O)Nc2ccc(-c3nc4ccccc4s3)cc2C)c1
CCOC(=O)c1ccc(NC(=O)CCCn2c(=O)c3cccn3c3ccccc32)cc1
COc1ccccc1NC(=O)C1=C(C)Nc2nc(SCc3ccccc3)nn2C1c1cccc(O)c1 (stereo not given)

Activity change, negative = inhibition, inactive:
O=C(Nc1ccccc1Br)c1cc(CN2CCCC2)on1 20.5%
COc1ccc(-c2nnc(SCC(=O)Nc3c(C)cccc3C)nc2-c2ccc(OC)cc2)cc1 -11.1%
CC(CCc1ccccc1)NC(=O)Cn1ncc2c3ccccc3n(Cc3ccccc3)c2c1=O (stereo not given) 0.79%
COc1cccc(CNC(=O)CCn2cnc3ccccc3c2=O)c1 5.45%
COc1ccccc1CNC(=O)Cn1c(=O)nc(-c2ccccc2F)c2cc(Cl)ccc21 -5.62%
Cc1ccc(-n2c(=O)c3cccnc3n2CC(=O)Nc2cc(C)cc(C)c2)cc1 3.19%
CC(C)c1ccc(NC(=O)Cn2c(=O)n(CC3CCC(C(=O)NCCc4ccccc4)CC3)c(=O)c3ccccc32)cc1 (stereo not given) 9.8%
Cc1ccc(S(=O)(=O)C2(C(=O)Nc3ccc(Cl)c(C(F)(F)F)c3)CC2)cc1 -1.44%
Cc1ccc(/C=C(\C#N)c2nc(-c3ccc(-c4ccccc4)cc3)cs2)cc1 -7.48%
CCOc1ccccc1CNC(=O)CCc1c(C)nn(-c2ccc(N3CCCC3)nn2)c1C -4.92%
Cc1ccc(CNc2ccc(-c3nc(-c4ccncc4)no3)cc2[N+](=O)[O-])cc1 -5.21%
Cc1cccc(N2CCN(C(=O)CS(=O)(=O)c3cccc4nsnc34)CC2)c1C 10.6%
Cc1ccc(Cl)cc1N1CCN(C(=O)C2CCC(CNS(=O)(=O)c3cccs3)CC2)CC1 (stereo not given) -1.12%
O=C(NCCCCN1CCOCC1)c1cc2ccccc2o1 -6.8%
CCc1ccccc1N(CC)C(=O)c1c(C)oc2ncn(C)c(=O)c12 -3.07%
COc1ccccc1N1CCN(C(=O)c2cc(CC(C)C)on2)CC1 32.4%
CCc1ccccc1NS(=O)(=O)c1ccc2[nH]cc(C(=O)N(CC(C)C)CC(C)C)c(=O)c2c1 1.76%
Cc1ccc2nc(COc3ccccc3NC(=O)COc3ccc(F)cc3)cc(=O)n2c1 -0.725%
Cc1ccc(-c2nc(S(=O)(=O)c3ccccc3)c(N3CCN(c4ccccc4)CC3)o2)cc1 7.1%
Oc1ccc(-c2ccc(-c3cc(Nc4cccc(CNC5CC5)c4)n[nH]3)cc2)c(O)c1 19.7%
CCc1ccc2nc(N(CCN(CC)CC)C(=O)c3cccs3)sc2c1 7.43%
COc1ccc(-c2nc(SCC(=O)Nc3ccc4c(c3)OCCO4)c(-c3ccc(F)cc3)[nH]2)cc1 -14.2%
O=C(Nc1ccccc1C(=O)OCc1cc(=O)n2c3c(sc2n1)CCCC3)c1ccc(F)cc1 0.79%
COc1cccc(C(=O)Nc2nc3nc(-c4ccccc4)cc(=O)n3[nH]2)c1 1.3%
COc1cccc(CNC(=O)C2=C(C)C(=O)OC23CCN(C(C)=O)CC3)c1OC -0.723%
CC(=O)c1ccc(NC(=O)CN2C(=O)CN(C)C(=O)c3ccccc32)cc1 -6.05%
CCOC(=O)c1c(-c2ccc(C)cc2)csc1NC(=O)c1cc(=O)c2cc(C)ccc2o1 -6.3%
O=C(Cn1c(=O)nc(-c2ccccc2)c2ccccc21)NCCc1ccccc1 19%
O=C1c2oc3ccccc3c(=O)c2C(c2cccc(O)c2)N1c1nncs1 (stereo not given) -9.53%
CCC(C(=O)NCc1cc(OC)ccc1OC)n1nc(C)c2sc3ccccc3c2c1=O (stereo not given) -2.59%
Fc1ccc(NCc2nnc3n2CCCCC3)cc1Cl 3.46%
COc1ccc(OC)c(CNC(=O)C2CCCN(c3ncnc4onc(-c5ccc(F)cc5)c34)C2)c1 (stereo not given) 5.6%
COc1ccccc1C(=O)Nc1ccc2nc(SCCOc3ccccc3C)sc2c1 6.69%
COc1ccc(NC(=O)C(NS(=O)(=O)c2cccc3nsnc23)C(C)C)cc1 (stereo not given) 7.8%
COc1ccccc1CNc1nc2c(S(=O)(=O)c3ccc(C)c(C)c3)nnn2c2ccc(Cl)cc12 4.75%
COC(=O)c1ccc(C2Nc3c(C)cccc3-c3cc(C)nn32)cc1 (stereo not given) 0.693%
O=C(c1ccc(F)cc1)c1cn(Cc2ccccc2)c2cc3c(cc2c1=O)OCO3 -8.52%
NC[C@H]1O[C@H](O[C@@H]2[C@@H](O)[C@@H](O[C@H]3O[C@H](CO)[C@@H](O)[C@H](N)[C@@H]3O)[C@H](N)C[C@@H]2N)[C@H](O)[C@@H](O)[C@H]1O 1.32%
COc1ccc(NC(=O)c2cc3ccccc3o2)c(OC)c1 0.799%
CCOC(=O)c1c(NC(=O)c2cc(-c3ccc(Br)cc3)on2)sc(C(C)=O)c1C 4.1%
CC1CCCN(c2cc3c(cc2F)c(=O)c(S(=O)(=O)c2cccc(Cl)c2)cn3Cc2ccccc2)C1 (stereo not given) -3.64%
O=C(Nc1c(C(=O)N2CCN(c3ccccc3F)CC2)oc2ccccc12)c1cccc(F)c1 -8.32%
COc1ccc(CCNC(=O)C(=O)NCC(c2ccco2)S(=O)(=O)c2ccc(C)cc2)cc1 (stereo not given) 6.64%
CCC(C(=O)Nc1cc(C)ccc1C)n1c(=O)c(C(F)(F)F)nc2ccccc21 (stereo not given) -9.84%
COc1ccc(C(=O)/C=C/c2cn(CC(O)CN3CCc4ccccc43)c3ccccc23)cc1OC (stereo not given) 1.25%
Cc1ccc(NC(=O)C2CCCN(S(=O)(=O)c3c(C)n[nH]c3C)C2)c(C)c1 (stereo not given) 5.14%
COc1ccc(OC)c(/C=C/c2nc3ccccc3c(=O)n2-c2ccc(F)c(Cl)c2)c1 -4.41%
COCc1nnc(NC(=O)c2cc(OC)c(OC)c(OC)c2)s1 20%
COc1ccc(CCNC(=O)c2ccc3c(c2)N(Cc2ccc(F)cc2)C(=O)c2ccccc2S3(=O)=O)cc1OC 13.4%
CCOC(=O)c1ccc(NC(=O)Cn2cc(C(=O)C3CC3)c3ccccc32)cc1 -0.444%
CCc1nn(CC(=O)NCc2ccco2)c(=O)c2cc3c(OC)cccc3n12 -9.83%
COc1ccccc1CNC(=O)CCc1c(C)c2cc3c(C)c(C)oc3cc2oc1=O 3.21%
Cc1cc(C)n(-c2nc(C)c(C)c(=O)n2CC(=O)Nc2ccc([N+](=O)[O-])cc2)n1 0.224%
Nc1nc2c(ncn2COC(CO)CO)c(=O)[nH]1 6.82%
COCC(=O)n1nc(-c2ccco2)nc1NCc1ccccc1Cl -4.82%
Cc1ccc(-n2ncc3c(NCCCN4CCOCC4)ncnc32)cc1C -1.43%
Cc1c(C(=O)Nc2cccc(C(F)(F)F)c2)sc2nc[nH]c(=O)c12 -5.08%
Cc1ccccc1Nc1c(-c2c(F)cccc2Cl)nc2ccc(Br)cn12 4.52%
COCCNC(=O)C1CCN(Cc2cc3ccccc3n2Cc2ccc(C)cc2)CC1 -5.92%
COCCn1c(CNC(=O)c2cccc(C)c2)nc2cccnc21 -4.22%
COc1ccc(NC(=O)c2ccc(NC(=O)N3CCSc4ncccc43)cc2)cc1 -16.1%
c1ccc2c(CCNc3ccc(Nc4ccncc4)cc3)c[nH]c2c1 -25.9%
